Data reported in patent US20250277029A1, “CANNABINOID TYPE 1 RECEPTOR BINDING PROTEINS AND USES THEREOF” (AMGEN INC., priority 2022, published 2025).
Numbering of substitutions follows the chain as printed.

T1: XCR1-SMALP (Homo sapiens, UniProt P46094)
T1 sequence (P46094 1-333): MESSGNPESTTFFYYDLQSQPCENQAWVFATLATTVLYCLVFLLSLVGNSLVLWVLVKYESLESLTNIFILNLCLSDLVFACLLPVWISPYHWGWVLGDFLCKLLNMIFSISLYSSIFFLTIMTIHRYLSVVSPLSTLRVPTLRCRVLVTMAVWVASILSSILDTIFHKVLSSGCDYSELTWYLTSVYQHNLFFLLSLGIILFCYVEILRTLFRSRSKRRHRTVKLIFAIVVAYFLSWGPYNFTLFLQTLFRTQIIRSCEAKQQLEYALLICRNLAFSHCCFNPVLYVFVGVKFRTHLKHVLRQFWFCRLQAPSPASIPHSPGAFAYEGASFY

B1: LIBC524049-1: cognate affinity-matured 10D10 variant; HV SEQ ID NO: 116, LV SEQ ID NO: 115 (antibody, V domains shown)
VH: QVQLQESGPGLVKPSQTLSLTCTVSGGSIRRGGDYWSWIRQHPGKGLEWIGHIYYTGSTAYNPSLKSRATISVNTYKNQFSLKLSSVTAADTAVYYCARDYDILTGYSYYYYGMDVWGQGTTVTVSS
VL: [sequence of about 100 residues omitted]YCRQARTLPRTFGQGTKVEIKR
B2: LIBC674276-1: further cognate affinity-matured variant (antibody, V domains shown)
VH: QVQLQESGPGLVKPSQTLSLTCTVSGGSIRRGGDYWSWIRQHPGKGLEWIGHVYYTGSTTYNPNFKGRVRISVNTYKNQFSLKLSSVTAADTAVYYCARGYDASGYSYYYYGLDVWGQGTTVTVSS
VL: [sequence of about 100 residues omitted]YCMQSLQTPRTFGQGTKVEIKR
B3: LIBC674043-1: further cognate affinity-matured variant (antibody, V domains shown)
VH: B2 VH with V53I, S58Q, L113M, S126R
VL: [sequence of about 100 residues omitted]YCMQSLQTPRTFGQGTKVEIKR
B4: LIBC674214-1: further cognate affinity-matured variant (antibody, V domains shown)
VH: B2 VH with T56E, T60K, N64S, K66R, A103V
VL: [sequence of about 100 residues omitted]YCMQSLQTPRTFGQGTKVEIKR
B5: LIBC674035-1: further cognate affinity-matured variant (antibody, V domains shown)
VH: B2 VH with V53I, T56A, S58Q, T60K, N64S, G67N, A103I
VL: [sequence of about 100 residues omitted]YCMQSLQTPRTFGQGTKVEIKR
B6: LIBC673948-1: further cognate affinity-matured variant (antibody, V domains shown)
VH: B2 VH with V53I, T60K, N64S, F65L, G67N, A103V
VL: [sequence of about 100 residues omitted]YCMQSLQTPRTFGQGTKVEIKR
B7: LIBC674216-1: further cognate affinity-matured variant (antibody, V domains shown)
VH: B2 VH with V53I, S58Q, T60A, N64S, F65L, K66R, G67N, A103I
VL: [sequence of about 100 residues omitted]YCMQSLQTPRTFGQGTKVEIKR
B8: LIBC674024-1: further cognate affinity-matured variant (antibody, V domains shown)
VH: B2 VH with Y55Q, T60K, N64S, G67N, A103V
VL: [sequence of about 100 residues omitted]YCMQSLQTPRTFGQGTKVEIKR
B9: LIBC674235-1: further cognate affinity-matured variant (antibody, V domains shown)
VH: B2 VH with T56A, N64S, F65L, G67S, A103V
VL: [sequence of about 100 residues omitted]YCMQSLQTPRTFGQGTKVEIKR
B10: LIBC674002-1: further cognate affinity-matured variant (antibody, V domains shown)
VH: B2 VH with V53I, T56K, T60E, N64S, F65L, K66R, A103V
VL: [sequence of about 100 residues omitted]YCMQSLQTPRTFGQGTKVEIKR
B11: LIBC674257-1: further cognate affinity-matured variant (antibody, V domains shown)
VH: B2 VH with V53I, S58Q, T60K, N64S, F65L, K66R, A103I
VL: [sequence of about 100 residues omitted]YCMQSLQTPRTFGQGTKVEIKR
B12: LIBC673982-1: further cognate affinity-matured variant (antibody, V domains shown)
VH: B2 VH with V53I, N64S, K66R, G100D, A103I, L113M
VL: [sequence of about 100 residues omitted]YCRQSVALPRTFGQGTKVEIKR
B13: LIBC674153-1: further cognate affinity-matured variant (antibody, V domains shown)
VH: B2 VH with T60A, N64S, K66R, A103T
VL: [sequence of about 100 residues omitted]YCMQSLQTPRTFGQGTKVEIKR
B14: LIBC529593-1 (Fab) (antibody, V domains shown)
VH: B1 VH with T56S, A60N, K66R, A69V, T70R, N74D, Y76S, M114L
VL: [sequence of about 100 residues omitted]YCMQSLQTPRTFGQGTKVEIKR
B15: LIBC673972-1: further cognate affinity-matured variant (antibody, V domains shown)
VH: B2 VH with V53I, S58Q, T60A, F65L, K66R, G67N
VL: [sequence of about 100 residues omitted]YCMQSLQTPRTFGQGTKVEIKR
B16: LIBC673965-1: further cognate affinity-matured variant (antibody, V domains shown)
VH: B2 VH with S58Q, T60A, N64S, F65L, K66R, A103T
VL: [sequence of about 100 residues omitted]YCMQSLQTPRTFGQGTKVEIKR

test system: CB1-nanodisc; assay: Octet affinity assay with CB1-nanodisc; assay type: binding, human; conditions: 1:1 Langmuir model

| Molecule | Octet (nanodisc) k off [s⁻¹] | Octet (nanodisc) k on [M⁻¹ s⁻¹] |
| --- | --- | --- |
| B1 | 0.000904 | 59000 |

target: T1, XCR1-SMALP; assay: Yeast-display non-specific binding to irrelevant XCR1-SMALP; conditions: fold change compared to LIBC523797-1(Fab), after background subtraction
From the text: All eighteen cognate variants met the stringent binding improvement threshold against huCB1I-GFP-SMALP and had minimal binding to irrelevant XCR1-SMALP and empty-ND (Table 32). […] For LIBC674043-1 and LIBC674200-1, VH R149S and VL G76D germline reversion mutations were also included in the panel of IgG1 SEFL2 mAbs produced for functional testing.

| Molecule | 50 nM XCR1 SMALP, relative binding fold change |
| --- | --- |
| B2 | 0.54 |
| B3 | 0.62 |
| B4 | 0.68 |
| B5 | 0.91 |
| B6 | 0.88 |
| B7 | 0.52 |
| B8 | 0.86 |
| B9 | 0.68 |
| B10 | 0.91 |
| B11 | 0.77 |
| B12 | 0.79 |
| B13 | 0.68 |
| B14 | 1.50 |
| B15 | 0.80 |
| B16 | 0.74 |
